This is one part of the list.

For this assay, the target named is T1, OsWOX13 (Oryza sativa, UniProt Q5QMM3 1-267).
T1 sequence: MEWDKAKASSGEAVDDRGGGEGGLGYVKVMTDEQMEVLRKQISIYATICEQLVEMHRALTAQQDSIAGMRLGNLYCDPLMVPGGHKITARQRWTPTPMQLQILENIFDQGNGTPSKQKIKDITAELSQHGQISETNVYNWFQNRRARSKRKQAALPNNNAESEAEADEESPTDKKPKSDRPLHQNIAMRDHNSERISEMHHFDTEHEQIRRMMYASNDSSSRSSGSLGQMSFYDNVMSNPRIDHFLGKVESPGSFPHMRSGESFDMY
In words: protein-binding microarray (RPBM); PBS, 2% BSA, 51.3 ng/ul salmon testes DNA, 50 uM zinc acetate, 200 nM TF, 25 C, 1 h; high values mean tight binding. As to conditions: protein: recombinant; tags: N-terminal polyhistidine and DsRed monomer fusion (pET32a); label: CyDye5-dUTP incorporated in the synthesized complementary strand; 3' TTTTT single-stranded linker to array surface; dsDNA, one strand shown. Put shortly: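 Transcription factors, each fused N-terminally to a polyhistidine tag and DsRed, were expressed in E. coli BL21-CodonPlus and purified on Ni–NTA. A custom Agilent array was made double-stranded by primer extension with Cy5-dUTP and blocked with 2% BSA. It was incubated with 200 nM protein in PBS, 2% BSA, salmon testes DNA and 50 µM zinc acetate at 25 °C for 1 h, then washed. The binding signal is per-feature fluorescence intensity (arbitrary units) read on an Axon 4000B scanner.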
On to “ATTTAAAATTACAAAATAATTAATAACTATCATGTATTTACGGAGTCACCTAGTGCAG”, for which the binding signal was 7060 fluorescence intensity (a.u.).
To “GTGATACGAAATAGATTGGACCAATATTATTCCTAATACACGGAGTCACCTAGTGCAG” belongs 19700 fluorescence intensity (a.u.); to “TTTTGACTGTGAATATCTACTACTTACATAACAAAGGAGGCGGAGTCACCTAGTGCAG”, 6920 fluorescence intensity (a.u.).
“TAGTCTTGATCAATCTCAATCAATCACCATTTACCAAGTACGGAGTCACCTAGTGCAG”: the binding signal was 34400 fluorescence intensity (a.u.).
Turning to “GACGGCAGATTGGCAAGTATAATTGGGCGATGCACATAAGCGGAGTCACCTAGTGCAG”, the binding signal is 25800 fluorescence intensity (a.u.).
Take “AGGAATATATATAATTTACAAATAACTAAAATTTGGTATTCGGAGTCACCTAGTGCAG”: the binding signal is 3360 fluorescence intensity (a.u.).
For the sequence “CATTCAGTAAAGCCAAATTAATTGAAACATGATCCGAGTCCGGAGTCACCTAGTGCAG”, the binding signal is 3950 fluorescence intensity (a.u.).
For “CCGTGATTTGAATGGAGGGTAGATCTCGAGAGGGAGGGAACGGAGTCACCTAGTGCAG”, the binding signal is 38600 fluorescence intensity (a.u.).
The result for “TACCTATGTTAATGTACAATTAGAGCTTCTAGACTATATCCGGAGTCACCTAGTGCAG” reads 4520 fluorescence intensity (a.u.).
To “ACAAATTAGTTAAACTTGCACCTTTCTTGTTGCTACCTCACGGAGTCACCTAGTGCAG” belongs 15300 fluorescence intensity (a.u.); to “AGGATTGAAGCTTTCCAAATCCTATGAAATTCTTATGGAACGGAGTCACCTAGTGCAG”, 3930 fluorescence intensity (a.u.); to “GAGAAACTAAATTTGCACAATTTTCATTATCAACAGTTACCGGAGTCACCTAGTGCAG”, 8640 fluorescence intensity (a.u.).
For the sequence “TCTAATGATGATTGTAAGCCGTACAATTTACTAAAAGATACGGAGTCACCTAGTGCAG”, the binding signal is 15000 fluorescence intensity (a.u.).
To “ATAAGTTAATTTAGTATGGGATGCGACATCTGTTAGTACTCGGAGTCACCTAGTGCAG” belongs 5560 fluorescence intensity (a.u.); to “ATATGATGGAAATCATGTGGTACCATCTACATAAATAAAACGGAGTCACCTAGTGCAG”, 12400 fluorescence intensity (a.u.).
On to “CACTATTATGTATGCAGTTTAATTTAATGATCATAATAGTCGGAGTCACCTAGTGCAG”, for which the binding signal was 3770 fluorescence intensity (a.u.).
Take “TATTAAATTACATGTCCTTGCAGAAGAAGTTGACATTGGCCGGAGTCACCTAGTGCAG”: the binding signal was 11700 fluorescence intensity (a.u.).
The result for “TTTGGATTGATCATGGTCATTTGTACTTTTGTAGTCTTTACGGAGTCACCTAGTGCAG” reads 21500 fluorescence intensity (a.u.); that for “ATGGCTCTATCATTGACGGTGACGACTGCATATGTTAAGGCGGAGTCACCTAGTGCAG”, 8100 fluorescence intensity (a.u.); that for “CACTAAATTACCTGTTTCTGCATTGCTAATCGGAGTGATCCGGAGTCACCTAGTGCAG”, 3520 fluorescence intensity (a.u.).
To “ATCGTGACAGAATATTCCCTTCCGACACCACCTCCGCTTCCGGAGTCACCTAGTGCAG” belongs 11600 fluorescence intensity (a.u.).
To “TTGTAAATTTGTAATACGGCCTTACAAACAATAGGTTAGTCGGAGTCACCTAGTGCAG” belongs 10200 fluorescence intensity (a.u.).
As to “TATGACTAGTTATTTAAAGATTGGTCCTGAACAAAGTGTACGGAGTCACCTAGTGCAG”, the binding signal was 8190 fluorescence intensity (a.u.).
To “CAGCACATCAACTTTGATTGGGATTGCCTCTAACACCACACGGAGTCACCTAGTGCAG” belongs 22300 fluorescence intensity (a.u.); to “AGAATAATTAGGAGCTAAATGGTGTATGTGCCGCATGCATCGGAGTCACCTAGTGCAG”, 17400 fluorescence intensity (a.u.).
The result for “TTTTGATCAATTTCAGAGTTCTACCATATATGCACTTGCCCGGAGTCACCTAGTGCAG” reads 3260 fluorescence intensity (a.u.).
To “CCAAACTACCAAAATTGTTAGACTTTTACTGCACACACCTCGGAGTCACCTAGTGCAG” belongs 3890 fluorescence intensity (a.u.); to “GGAGAATTGACACAAATGCATAAGGGGCTACCAAGTACAGCGGAGTCACCTAGTGCAG”, 26700 fluorescence intensity (a.u.).
For “ATAAATTGTTTTAAAATATCACATAAATTCATTTTCTAAGCGGAGTCACCTAGTGCAG”, the binding signal is 8290 fluorescence intensity (a.u.).
For the sequence “CCGTATCATAATCACGTCCTGCCACCCTTTTAACTAATCACGGAGTCACCTAGTGCAG”, the binding signal is 5040 fluorescence intensity (a.u.).
The result for “AAGCCAATCATCCCTTGAAATAGCGCCATCTTGTTGGCAACGGAGTCACCTAGTGCAG” reads 13500 fluorescence intensity (a.u.).
As for “GTTGATGAGAGTGAAATTTGATTGACAAAGGATTGACTGGCGGAGTCACCTAGTGCAG”, the binding signal was 64400 fluorescence intensity (a.u.).
Regarding “ATTATTGAATAGTTTTATGAAACTATTTGGTCACAGTGGGCGGAGTCACCTAGTGCAG”, the binding signal was 3880 fluorescence intensity (a.u.).
The result for “CCAATCAATCTCCTGCACATGCACTCAAGAATTCCCTATGCGGAGTCACCTAGTGCAG” reads 10700 fluorescence intensity (a.u.); that for “CGTAATTAGGTTTAAAAGATTCGTATTGCAATTTACACGTCGGAGTCACCTAGTGCAG”, 35100 fluorescence intensity (a.u.).
Regarding “ACTAGTGATTAAATTCTTGTGCATGGTGATTGATTGGTGACGGAGTCACCTAGTGCAG”, the binding signal was 34600 fluorescence intensity (a.u.).
On to “ATCCCAAATTTCCCCATCAATCGCCACCCGCGCCCAATTCCGGAGTCACCTAGTGCAG”, for which the binding signal is 8290 fluorescence intensity (a.u.).
With “CCTCAGCAATTTGATTATCATATTACTTGGTCGTCTTCTACGGAGTCACCTAGTGCAG”, the binding signal was 9150 fluorescence intensity (a.u.).
“CTGATGATGTAGTGACTGAGAAGCAGGAGTGGAGTTGTGTCGGAGTCACCTAGTGCAG”: the binding signal was 6000 fluorescence intensity (a.u.).
To “AGCCATTAGCGCATGATTAATTGAGTATTAACTATTTTAACGGAGTCACCTAGTGCAG” belongs 5100 fluorescence intensity (a.u.); to “GAAATTATGAATCAAATTCGCACACTAGCTAAGGGAGACACGGAGTCACCTAGTGCAG”, 3470 fluorescence intensity (a.u.).
As to “TATCCAAATTATATTATTGTCAATTTAACTGAAATTTATCCGGAGTCACCTAGTGCAG”, the binding signal was 19600 fluorescence intensity (a.u.).

Values taken from publication PMC7819943, “Rice protein-binding microarrays: a tool to detect cis-acting elements near promoter regions in rice”.
